This is an account of results in PMC3517938.

The chains behind the UniProt entries cited, without tags or fusion partners. A line that says so, or that is headed by a name, gives the form on record, which may keep a tag or linker. Residues count along the entry.
UniProt Q96FI4: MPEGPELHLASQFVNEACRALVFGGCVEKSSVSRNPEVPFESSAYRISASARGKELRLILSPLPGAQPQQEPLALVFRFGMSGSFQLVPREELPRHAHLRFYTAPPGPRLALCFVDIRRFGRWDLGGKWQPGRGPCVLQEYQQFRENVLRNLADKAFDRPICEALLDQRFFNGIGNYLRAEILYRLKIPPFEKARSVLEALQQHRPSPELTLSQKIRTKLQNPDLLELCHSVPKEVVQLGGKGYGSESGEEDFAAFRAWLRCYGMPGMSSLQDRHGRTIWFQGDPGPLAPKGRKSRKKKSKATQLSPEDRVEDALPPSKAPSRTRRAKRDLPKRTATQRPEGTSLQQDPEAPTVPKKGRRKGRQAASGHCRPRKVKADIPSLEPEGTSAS
UniProt O15527: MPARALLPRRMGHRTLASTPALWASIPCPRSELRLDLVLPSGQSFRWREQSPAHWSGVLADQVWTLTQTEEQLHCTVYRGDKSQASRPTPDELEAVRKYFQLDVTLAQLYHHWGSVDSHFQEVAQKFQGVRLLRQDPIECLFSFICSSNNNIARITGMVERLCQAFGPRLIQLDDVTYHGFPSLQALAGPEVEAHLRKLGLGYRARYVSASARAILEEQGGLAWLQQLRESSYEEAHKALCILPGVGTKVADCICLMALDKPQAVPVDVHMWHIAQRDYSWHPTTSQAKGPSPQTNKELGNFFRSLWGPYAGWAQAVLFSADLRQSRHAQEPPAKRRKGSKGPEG
PARP-1 DNA binding domain (1–373 aa), His-tagged (P09874, residues 1-373): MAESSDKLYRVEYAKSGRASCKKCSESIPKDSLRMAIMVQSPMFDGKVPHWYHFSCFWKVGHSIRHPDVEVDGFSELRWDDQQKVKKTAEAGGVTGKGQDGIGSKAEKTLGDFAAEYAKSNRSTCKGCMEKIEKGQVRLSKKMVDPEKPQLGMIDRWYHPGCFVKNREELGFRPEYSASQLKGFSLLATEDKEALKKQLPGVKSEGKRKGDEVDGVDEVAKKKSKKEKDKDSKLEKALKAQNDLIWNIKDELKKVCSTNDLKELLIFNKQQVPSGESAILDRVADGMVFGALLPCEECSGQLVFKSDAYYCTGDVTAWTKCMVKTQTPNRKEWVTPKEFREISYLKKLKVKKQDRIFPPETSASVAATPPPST
PARP-1 catalytic domain (656–1014 aa), His-tagged (P09874, residues 656-1014): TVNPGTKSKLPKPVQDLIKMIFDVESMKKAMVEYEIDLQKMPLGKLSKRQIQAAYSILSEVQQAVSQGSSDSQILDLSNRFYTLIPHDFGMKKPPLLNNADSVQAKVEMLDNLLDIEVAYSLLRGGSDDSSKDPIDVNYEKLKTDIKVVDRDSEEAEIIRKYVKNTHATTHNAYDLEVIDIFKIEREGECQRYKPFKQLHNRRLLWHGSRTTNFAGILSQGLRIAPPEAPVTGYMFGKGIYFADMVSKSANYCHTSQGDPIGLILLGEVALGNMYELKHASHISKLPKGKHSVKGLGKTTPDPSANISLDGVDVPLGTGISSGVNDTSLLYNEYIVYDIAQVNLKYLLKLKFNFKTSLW
UniProt P11103: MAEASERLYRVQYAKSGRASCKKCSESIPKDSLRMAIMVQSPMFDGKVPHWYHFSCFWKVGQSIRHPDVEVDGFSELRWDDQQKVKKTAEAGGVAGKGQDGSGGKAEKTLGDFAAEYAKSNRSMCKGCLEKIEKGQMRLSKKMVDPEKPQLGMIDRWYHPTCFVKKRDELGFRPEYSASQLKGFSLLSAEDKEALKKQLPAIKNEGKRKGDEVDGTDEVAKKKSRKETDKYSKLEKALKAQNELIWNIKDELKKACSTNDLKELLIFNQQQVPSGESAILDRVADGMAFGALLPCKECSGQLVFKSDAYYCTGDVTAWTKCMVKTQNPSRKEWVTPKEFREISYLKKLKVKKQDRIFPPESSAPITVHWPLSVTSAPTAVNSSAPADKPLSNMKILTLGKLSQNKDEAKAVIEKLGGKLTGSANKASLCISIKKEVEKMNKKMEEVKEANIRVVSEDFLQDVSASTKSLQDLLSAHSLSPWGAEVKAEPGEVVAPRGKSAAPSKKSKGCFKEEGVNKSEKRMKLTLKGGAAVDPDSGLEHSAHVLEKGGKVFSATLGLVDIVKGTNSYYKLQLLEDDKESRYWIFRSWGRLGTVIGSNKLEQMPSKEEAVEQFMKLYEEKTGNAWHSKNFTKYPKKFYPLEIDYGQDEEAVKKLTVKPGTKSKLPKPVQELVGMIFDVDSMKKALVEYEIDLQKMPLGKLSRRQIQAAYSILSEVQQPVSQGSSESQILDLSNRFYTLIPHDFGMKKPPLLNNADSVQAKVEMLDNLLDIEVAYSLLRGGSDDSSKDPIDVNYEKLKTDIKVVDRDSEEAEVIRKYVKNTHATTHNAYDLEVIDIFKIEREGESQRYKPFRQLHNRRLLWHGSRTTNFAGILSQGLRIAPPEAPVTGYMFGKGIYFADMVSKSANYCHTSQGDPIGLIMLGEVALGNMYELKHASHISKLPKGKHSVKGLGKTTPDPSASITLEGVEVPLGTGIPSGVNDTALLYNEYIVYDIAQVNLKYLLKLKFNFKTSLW

The target in assay [1] is GST-NEIL1 (GST tagged full-length NEIL1) (UniProt Q96FI4). Kind of assay: pull-down; 1 μg GST-NEIL1 incubated with 1 μg His-tagged PARP-1 domain, without ethidium bromide; immunoblot with anti-His or anti-BRCT antibodies; both purified. (In western blotting, separated proteins are transferred to a membrane and probed.)
The target is the same in assay [2]. Kind of assay: pull-down; 1 μg GST-NEIL1 incubated with 1 μg His-tagged PARP-1 DNA binding domain in the presence of 10 μg/ml ethidium bromide; immunoblot with anti-His; both purified.
Assay [3] deals with GST-OGG1 (human) (UniProt O15527). Kind of assay: pull-down; 20 μg GST fusion protein incubated with 175 μg liver nuclear extract of young (7 month) or old (17 month) C57Bl/6 mice in IP buffer 1 hr at 4°C, washed 5X; immunoblot with anti-PARP-1; only the target purified.
Assay [4] addresses GST-NEIL1 (GST tagged full-length NEIL1) (UniProt Q96FI4). Described as above.

These are yes or no findings as the source states them, for the method shown. For some assays here: In cells and extracts the contact can be indirect. Some entries that bind do so weakly or less than the wild type.

Take “PARP-1 DNA binding domain (1–373 aa), His-tagged (from UniProt P09874 1-373) (domain or fragment)”: the binding entry is “no binding (tested: 1 μg)” in assay [1] and “no binding (condition: with 10 μg/ml ethidium bromide)” in assay [2].

Take “PARP-1 catalytic domain (656–1014 aa), His-tagged (from UniProt P09874 656-1014) (domain or fragment)”: in assay [1], the binding result is reported as “no binding (tested: 1 μg)”.

Consider “PARP-1, endogenous in mouse liver nuclear extracts (from UniProt P11103 1-1013) (enzyme)”, for which the binding entry in assay [3] and in assay [4] was “binds” in each case.
